By IC50 is meant the dose at which the fit gives 50% viability; a limit (>, <) means that the fit lies beyond the doses tested. The AUC spans the tested range (256-fold, ending at the top dose) of the same fit; the more sensitive the line, the further below 1. For some assays here: Where the top dose is marked as inferred, it was calculated from the reported fits. For some assays here: Where an entry number is given, a second screen of the drug exists; the two often differ.
Assays:
Assay in all cases: Viability of human cancer cell lines after 72 h of drug (GDSC screen)
BX-912 = compound: O=C(Nc1cccc(Nc2ncc(Br)c(NCCc3cnc[nH]3)n2)c1)N1CCCC1 [BX-912]; conditions: top dose 10.24 µM; top dose inferred
Protocol: (§1)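 Human cancer cell lines in 384-well plates, medium with 10% serum, drug for 72 h over a 256-fold dose range (nine 2-fold or five 4-fold steps up to the top dose). Adherent lines were fixed and stained with the nucleic acid dye Syto60, suspension lines read with resazurin; signal relative to control wells, capped at 0 and 100%. One two-parameter sigmoid per drug and line, fitted in a mixed model over all curves with the slope shared within a line.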

Masitinib = compound: Cc1ccc(NC(=O)c2ccc(CN3CCN(C)CC3)cc2)cc1Nc1nc(-c2cccnc2)cs1 [Masitinib]; conditions: top dose 20 µM
Protocol: as §1

Tamoxifen = compound: CC/C(=C(\c1ccccc1)c1ccc(OCCN(C)C)cc1)c1ccccc1 [Tamoxifen]; conditions: top dose 5 µM
Protocol: as §1

Bleomycin = compound: Cc1c(N)nc([C@H](CC(N)=O)NC[C@H](N)C(N)=O)nc1C(=O)N[C@H](C(=O)N[C@H](C)[C@@H](O)[C@H](C)C(=O)N[C@H](C(=O)NCCc1nc(-c2nc(C(=O)NCCC[S+](C)C)cs2)cs1)[C@@H](C)O)[C@@H](OC1OC(CO)C(O)C(O)C1OC1OC(CO)C(O)C(OC(N)=O)C1O)c1cnc[nH]1 [Bleomycin]
Protocol: as §1

HG-5-88-01 = compound: COc1cc(N2CCC(C(N)=O)CC2)ccc1Nc1nc(N)c(Cl)c(Nc2ccccc2S(=O)(=O)C(C)C)n1 [HG-5-88-01]; conditions: top dose 10 µM; top dose inferred
Protocol: as §1

LAQ824 = compound: O=C(/C=C/c1ccc(CN(CCO)CCc2c[nH]c3ccccc23)cc1)NO [LAQ824]; conditions: top dose 1.024 µM; top dose inferred
Protocol: as §1

Elesclomol = compound: CN(NC(=O)CC(=O)NN(C)C(=S)c1ccccc1)C(=S)c1ccccc1 [Elesclomol]; conditions: top dose 0.2 µM; top dose inferred
Protocol: as §1

NSC-87877 = compound: O=S(=O)(O)c1ccc2cc(N=Nc3cc(S(=O)(=O)O)c4cccnc4c3O)ccc2c1 [NSC-87877]; conditions: top dose 16 µM; top dose inferred
Protocol: as §1

OSI-930 = compound: O=C(Nc1ccc(OC(F)(F)F)cc1)c1sccc1NCc1ccnc2ccccc12 [OSI-930]; conditions: top dose 10.24 µM
Protocol: as §1

VNLG/124 = compound: CCCC(=O)OCc1ccc(OC(=O)/C=C(C)/C=C/C=C(C)/C=C/C2=C(C)CCCC2(C)C)cc1 [VNLG/124]; conditions: top dose 5.12 µM; top dose inferred
Protocol: as §1

[1] = top dose 50 µM, screen: GDSC drug entry 1378, top dose inferred
[2] = top dose 64 µM, screen: GDSC drug entry 190

| Cell Line | AUC (BX-912) | IC50 (BX-912) [µM] | AUC (Masitinib) | IC50 (Masitinib) [µM] | AUC (Tamoxifen) | IC50 (Tamoxifen) [µM] | AUC (Bleomycin; [1]) | IC50 (Bleomycin; [1]) [µM] | AUC (Bleomycin; [2]) | IC50 (Bleomycin; [2]) [µM] | AUC (HG-5-88-01) | IC50 (HG-5-88-01) [µM] | AUC (LAQ824) | IC50 (LAQ824) [µM] | AUC (Elesclomol) | IC50 (Elesclomol) [µM] | AUC (NSC-87877) | IC50 (NSC-87877) [µM] | AUC (OSI-930) | IC50 (OSI-930) [µM] | AUC (VNLG/124) | IC50 (VNLG/124) [µM] |
| --- | --- | --- | --- | --- | --- | --- | --- | --- | --- | --- | --- | --- | --- | --- | --- | --- | --- | --- | --- | --- | --- | --- |
| ES7 (Ewing sarcoma, adherent) | 0.385 | 0.305 | 0.619 | 2.68 | 0.931 | > 5 | 0.089 | < 0.195 | 0.228 | 0.628 | 0.955 | > 10 | 0.556 | 0.0914 | 0.329 | 0.00411 | 0.934 | > 16 | 0.876 | > 10.2 | 0.817 | 2.97 |
| DG-75 (Burkitt lymphoma, suspension) | 0.918 | > 10.2 | 0.868 | 18.7 | 0.94 | > 5 | 0.89 | > 50 | 0.725 | 17.6 | 0.957 | > 10 | 0.742 | 0.319 | 0.593 | 0.0226 | 0.982 | > 16 | 0.966 | > 10.2 | 0.986 | > 5.12 |
| ES5 (Ewing sarcoma, adherent) | 0.442 | 0.435 | 0.766 | 8.45 | 0.97 | > 5 | 0.591 | 5.77 | 0.544 | 5.37 | 0.664 | 1.92 | 0.346 | 0.0223 | 0.489 | 0.0116 | 0.975 | > 16 | 0.803 | 5.97 | 0.921 | > 5.12 |
| RC-K8 (B-cell lymphoma, suspension) | 0.993 | > 10.2 | 0.99 | > 20 | 0.965 | > 5 | 0.977 | > 50 | 0.818 | 30.2 | 0.991 | > 10 | 0.592 | 0.11 | 0.949 | > 0.2 | 0.99 | > 16 | 0.992 | > 10.2 | 0.993 | > 5.12 |
| SK-MEL-3 (melanoma, adherent) | 0.926 | > 10.2 | 0.83 | 15.4 | 0.982 | > 5 | 0.671 | 10.2 | 0.682 | 14.1 | 0.893 | > 10 | 0.488 | 0.0591 | 0.937 | > 0.2 | 0.919 | > 16 | 0.96 | > 10.2 | 0.983 | > 5.12 |

Source: the supplement of paper PMC4967469
